# Out of some 310,000 compounds screened, about 2,200 (0.71%) showed an effect of 50% or more. The effect is printed as a negative number. The list shows a part of the results.
# Target: human ether-à-go-go-related gene (hERG) potassium channel (human, UniProt Q12809)
# Experiment: primary screen, population patch clamp on CHO cells stably expressing hERG
# human ether-à-go-go-related gene (hERG) potassium channel, sequence (Q12809 whole entry, looked up): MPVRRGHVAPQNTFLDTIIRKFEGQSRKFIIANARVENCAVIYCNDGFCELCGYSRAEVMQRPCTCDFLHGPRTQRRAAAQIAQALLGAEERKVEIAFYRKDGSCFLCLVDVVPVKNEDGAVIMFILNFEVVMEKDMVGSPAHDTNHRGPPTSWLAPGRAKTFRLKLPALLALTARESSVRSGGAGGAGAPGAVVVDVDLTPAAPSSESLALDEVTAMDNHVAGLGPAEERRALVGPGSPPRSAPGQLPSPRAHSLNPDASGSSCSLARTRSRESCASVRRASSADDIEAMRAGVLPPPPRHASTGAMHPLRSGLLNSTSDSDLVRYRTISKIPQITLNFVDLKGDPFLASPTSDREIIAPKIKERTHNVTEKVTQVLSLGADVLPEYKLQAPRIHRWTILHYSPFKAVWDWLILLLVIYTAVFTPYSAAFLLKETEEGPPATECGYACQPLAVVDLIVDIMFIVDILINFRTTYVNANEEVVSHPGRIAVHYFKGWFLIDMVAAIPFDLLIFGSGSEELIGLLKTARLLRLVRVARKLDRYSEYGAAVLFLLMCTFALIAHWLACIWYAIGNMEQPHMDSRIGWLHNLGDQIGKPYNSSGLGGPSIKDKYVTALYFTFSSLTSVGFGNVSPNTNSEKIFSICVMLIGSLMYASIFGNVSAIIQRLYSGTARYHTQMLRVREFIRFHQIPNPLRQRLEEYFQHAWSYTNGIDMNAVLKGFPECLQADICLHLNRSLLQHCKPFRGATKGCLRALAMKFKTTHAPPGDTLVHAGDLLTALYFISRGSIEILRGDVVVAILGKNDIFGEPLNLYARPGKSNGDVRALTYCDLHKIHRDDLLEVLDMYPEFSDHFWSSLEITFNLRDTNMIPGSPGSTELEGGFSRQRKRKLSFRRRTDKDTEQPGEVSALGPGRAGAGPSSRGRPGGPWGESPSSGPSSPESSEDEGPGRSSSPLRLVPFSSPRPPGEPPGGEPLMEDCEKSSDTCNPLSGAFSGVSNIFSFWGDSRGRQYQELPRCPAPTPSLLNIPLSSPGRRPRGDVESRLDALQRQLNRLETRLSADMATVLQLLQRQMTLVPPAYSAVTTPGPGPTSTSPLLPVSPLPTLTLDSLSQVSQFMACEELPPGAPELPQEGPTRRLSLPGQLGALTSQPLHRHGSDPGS
row,Compound,"hERG current change (%, negative = inhibition) at 1uM"
1,N#Cc1nc(Cc2cccc3ccccc23)oc1NCCCN1CCOCC1,2.63%
2,O=C(C1CCN(S(=O)(=O)c2cccc3cccnc23)CC1)N1CCc2ccccc21,15.1%
3,COc1ccc(C(=O)OCC(=O)Nc2c(C)cccc2C)c(OC)c1OC,24.2%
4,CC(=O)N1CCN(S(=O)(=O)c2cccc(C(=O)N(Cc3ccccc3)c3cccc(C)c3)c2)CC1,8.34%
5,Cc1ccc(CN2CCN(/N=C/c3cc([N+](=O)[O-])ccc3Cl)CC2)cc1,2.89%
6,COc1ccc2c(c1)c(=O)cc(C)n2CC(=O)NCc1ccco1,5.49%
7,CC(=O)c1cccc(Nc2nc(-c3cccnc3)cs2)c1,12%
8,C=CCCN(Cc1ccccc1)S(=O)(=O)c1cc(Br)ccc1Br,10.1%
9,O=C(NCC(c1ccco1)N1CCCCC1)c1cccnc1 (centres unmarked),5.41%
10,COc1ccccc1NS(=O)(=O)c1cc(NC(=O)/C=C/c2cccs2)ccc1N1CCOCC1,10.2%
11,Cc1cc(NC(=O)c2sc(Nc3ccc(F)c(Cl)c3)nc2N)no1,4.5%
12,Cc1ccc(S(=O)(=O)N(C)C)cc1NC(=S)NC(C)CCC(C)C (centres unmarked),4.92%
13,COc1ccc(CCNS(=O)(=O)c2cn(C)c(=O)n(C)c2=O)cc1OC,11.9%
14,CC(C)(C)c1ccc(S(=O)(=O)/N=C2\C=C(NS(=O)(=O)c3ccccc3)C(=O)c3ccccc32)cc1,11%
15,O=C(C1CCC(Cn2c(=S)[nH]c3ccccc3c2=O)CC1)N1CCN(c2ccccn2)CC1 (centres unmarked),6.77%
16,Nn1c(SCC(=O)N2CCCCCC2)nnc1-c1ccncc1,-0.911%
17,Cn1cccc1CC(=O)NNC(=O)Nc1ccccc1F,12%
18,O=C(O)c1ccccc1C(=O)Nn1cnnc1,15.3%
19,CC1CCCCC1NC(=O)/C(C#N)=C/c1ccccc1F (centres unmarked),-2.15%
20,CC1COc2ccccc2N1C(=O)c1ccc(F)cc1 (centres unmarked),9.3%
21,COc1ccc(OCCOC(=O)c2cc(S(=O)(=O)N3CCOCC3)c(Cl)cc2Cl)cc1,0.154%
22,CCOc1cc(/C=N/NC(=O)c2ccc(CSc3nncn3C)cc2)ccc1OCC(=O)N1CCOCC1,11.7%

row,Compound,"hERG current change (%, negative = inhibition) at 1uM"
1,CC1CCN(c2ccc(/C=C(\C#N)c3nn(-c4ccccc4)c(N)c3C#N)cc2[N+](=O)[O-])CC1,10.7%
2,COc1ccc(CNC(=O)COC(=O)C2CC2C)cc1OC (centres unmarked),5.53%
3,N#CC1=C2SC=C(c3ccc(Br)cc3)N2CCCC1=O,13.4%
4,CCOC(=O)C1CCN(C2CC(=O)N(c3cccc(Cl)c3)C2=O)CC1 (centres unmarked),-0.575%
5,Cc1cccc(/C(N)=N/OC(=O)CCC2CCCCC2)c1,3.86%
6,Cn1cc([N+](=O)[O-])c(C(=O)Nc2ccc(C(=O)N3CCCCC3)cc2)n1,14.8%
7,CCOc1ccc(NC(=O)CSc2nc(=O)n(Cc3ccccn3)c3c2CCC3)cc1,-3.28%
8,Cc1ccc(S(=O)(=O)N(C)c2ccc(OCC(=O)OCc3c(C)noc3C)cc2)cc1,11.2%
9,CC(C)N(Cc1ccccc1)C(=O)CN1C(=O)COc2ccc(S(=O)(=O)NC3CCCC3)cc21,7.31%
10,N#Cc1c([N+](=O)[O-])cc([N+](=O)[O-])cc1S(=O)(=O)Cc1ccccc1,12.9%
11,COCCN(C(=O)COC(=O)c1ccccc1NCc1ccco1)c1c(N)n(Cc2ccccc2)c(=O)[nH]c1=O,9.57%
12,Cc1ccc(NS(=O)(=O)c2ccc(NC(=O)N3CCCCC3)cc2)cc1,8.05%
13,C=CCc1c(C)nc(SC)nc1Nc1ccccc1,-3.11%
14,COc1ccccc1NC(=O)Cn1cc(C(=O)c2ccco2)c2ccccc21,0.972%
15,Cc1ccc(C(=O)CSc2nnc(COc3cc(C)cc(C)c3)o2)cc1,15.3%
16,CCOC(=O)CC1C(=O)NCCN1S(=O)(=O)c1cccc(C(F)(F)F)c1 (centres unmarked),13.1%
17,O=C(c1cc(COc2c(F)cccc2F)on1)N(Cc1ccccc1)CC1CC1,5.15%
18,N=C1C(=O)OCC1c1ccccc1NC(=O)c1ccccc1 (centres unmarked),14.8%
19,O=C(CSc1ccc([N+](=O)[O-])cc1)OCC(=O)N1CCCC1=O,-2.35%
20,CCOC(=O)c1c(NC(=O)COC(=O)c2ccc([N+](=O)[O-])cc2)sc(C(=O)N(C)C)c1C,8.47%
21,COc1ccccc1CC(NC(C)=O)C(=O)NC1CCN(C(=O)Nc2ccccc2Cl)CC1 (centres unmarked),3.64%
22,Cl.O=C(CN1CCOCC1)NCc1ccc(F)cc1,15.9%

row,Compound,"hERG current change (%, negative = inhibition) at 1uM"
1,O=C(C=C=Nc1ccccc1)C(=O)N=C=Cc1ccccc1,14.1%
2,Cc1ccc(NC(=S)N/N=C2\CC(C)(C)Oc3ccc(O)cc32)cc1,3.09%
3,COc1ccc(Cn2nnnc2C(c2ccc(F)cc2)N2CCN(C3CCCC3)CC2)cc1 (centres unmarked),-15%
4,CC(C)[C@H](NC(=O)c1ccc(Cl)c([N+](=O)[O-])c1)C(=O)NCc1ccc(F)cc1,10.1%
5,Cc1ccc(CSCC(=O)N(C)CC(=O)Nc2cccc(F)c2)cc1,0.653%
6,Cc1occc1-c1nnc(SCC(=O)Nc2ccc3c(c2)OCO3)n1CC1CCCO1 (centres unmarked),2.19%
7,CCOc1ccc(NC(=O)CN(C)C(=O)c2cc(-c3cccs3)nn2-c2ccccc2)cc1OCC,-14.3%
8,CCOC(=O)c1cnc(SCCc2ccccc2)nc1N,12.3%
9,O=C(C1CCCN1S(=O)(=O)c1ccc(Br)cc1)N1CCOCC1 (centres unmarked),6.73%
10,O=C(CSc1nnc(CNc2ccc(F)cc2)n1-c1ccccc1)N1CCOCC1,-0.964%
11,CC(C)(C)c1ccc(/C=C(\C#N)C(=O)Nc2ccccn2)cc1,15.4%
12,O=C(COc1ccccc1Cl)N1CCN(c2ncccn2)CC1,5.11%
13,CCCCN(C(=O)c1ccc(C)o1)c1c(N)n(CC(C)C)c(=O)[nH]c1=O,12.2%
14,CC(/C=C/c1ccco1)=N\NC(=O)c1cccc(Cl)c1,12.2%
15,Cc1[nH]c(C)c(S(=O)(=O)NCc2ccc(N(C)C)cc2)c1C(=O)N1CCCC1,9.62%
16,CCN(CC)S(=O)(=O)c1cccc(-c2nnc(SCC(=O)NC)n2N)c1,11.9%
17,O=C(c1ccc(S(=O)(=O)Nc2ccccc2F)cc1)N1CCN(c2ccccc2O)CC1,6.88%
18,Cc1ccc(CNC(=O)COC(=O)C2CC2)cc1,9.64%
19,O=C(NCCOc1cccc(Cl)c1Cl)c1cc(-n2cnnc2)ccc1Cl,-6.67%
20,c1ccc(-c2nccc3ccccc23)cc1,6.57%
21,O=C(CNC(=O)c1ccc2ccccc2c1)Nc1ncccc1O,6.56%
22,Cc1cc(OC(C)C(=O)N/N=C/CC(C)c2ccccc2)ccc1Cl (centres unmarked),14%

row,Compound,"hERG current change (%, negative = inhibition) at 1uM"
1,O=C(O)C1C2C=CC3(CN(Cc4ccncc4)C(=O)C13)O2 (centres unmarked),16.1%
2,CCOC(=O)c1ccccc1NC(=O)CN(c1cccc(OC)c1)S(C)(=O)=O,3.7%
3,O=C(NCCOc1ccccc1)C1Nc2ccc(C(F)(F)F)cc2C2c3ccccc3CC12 (centres unmarked),6.96%
4,CC(C)(C)NC(=O)c1ccc2c(c1)C1C3CCC(C3)C1C(c1ccccc1)N2 (centres unmarked),8.02%
5,O=[N+]([O-])c1ccc(Cl)c(S(=O)(=O)Nc2cccc(-c3ccc(N4CCCC4)nn3)c2)c1,10.8%
6,Cc1ccc(NC(=O)C2Oc3ccccc3OC2C)cc1 (centres unmarked),13%
7,O=C(c1ccc([N+](=O)[O-])s1)N1CCc2ccccc21,18.7%
8,CCc1noc(C)c1C(=O)Nc1nc2c(F)cc(F)cc2s1,13.1%
9,O=C(COc1ccccc1)Nc1ccncc1Cl,6.36%
10,Cn1c(-c2sc3cc(C(F)(F)F)cnc3c2-c2ccccc2)n[nH]c1=S,15.6%
11,O=C1Nc2cc(C(=O)NCC3CCCO3)ccc2S/C1=C/c1ccccc1F (centres unmarked),15.1%
12,Cc1cc(C(=O)CSc2nc3ccccc3c(=O)[nH]2)c(C)n1C,3.95%
13,Cc1ccccc1NCC(=O)N/N=C/c1c(C)c(C(=O)c2ccc(Cl)cc2)n2ccccc12,-0.586%
14,COc1ccc(N=N/C(=C\O)C(=O)c2cccs2)cc1,18.7%
15,CC(=O)c1ccc(NC(=O)CSC(=S)N2CCCC2)cc1,5.67%
16,CC(=O)Nc1ccc(C2=CC(=O)CC(C)(C)C2)cc1,13.3%
17,COc1ccccc1C1CC(c2ccco2)=NN1c1ccccc1 (centres unmarked),14.2%
18,CN(C)CCN=Cc1c(O)n(CCC2=CCCCC2)c(=O)[nH]c1=O,-1.37%
19,CN(C)c1nc(N(C)C)nc(N2CC(CCl)OC2=N)n1 (centres unmarked),2.83%
20,FC(F)Oc1ccc(NC(=S)NCc2cccnc2)cc1,6.01%

# — article PMC4336329 (PLoS ONE, 2015)
